Laboratory results taken from the supplement of paper PMC11417369.
± gives the standard deviation of the averaged measurements. Some of the results follow.

Each sequence was assayed on PfAP2-G AP2 domain (GST-tagged) (assay: gcPBM binding intensity (ln(normalized median fluorescence intensity)); higher = stronger DNA binding).
Procedure, shortened: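 For binding intensity, the highest Masliner-normalised natural-log median intensity across replicate spots of either probe orientation was taken. Protein bound to the array was stained with Alexa488 anti-GST antibody and scanned at 488 nm. The protein, GST-tagged P. falciparum DNA-binding domains from E. coli at about 25 μg on average, had been applied for 1 h to an Agilent 4 × 180k array of primer-extended double-stranded 36-bp intergenic genomic probes and negative controls.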

Sequence | gcPBM binding intensity (ln)
ATATATATGTATGTATGTACACACAAAAAATGGAAT [XGTACX_site7879] | 11.5 ± 0.79
TTAAAATAGCTAGTTTGTACATAAAATATATTACTT [XGTACX_site202] | 10.8 ± 0.49
AATATATATATATATATTTTTGTTAGAATATGGAAT [GTGCAC_negctrl_site434] | 9.87 ± 0.16
TAAATAAATAAAAATAGTACATAATTATTATTATTA [XGTACX_site4981] | 11 ± 0.68
TTTTAAAAAATATAATAATATAAATATGTTTTATAC [CACACA_negctrl_site643] | 9.55 ± 0.11
ATATATATATGTTTGTGTACTTATGATATCATATAA [XGTACX_site3276] | 11.5 ± 0.99
ATTATATTCTTTACTACCAATTAGTAGAAAATAAAA [CACACA_negctrl_site1096] | 10.3 ± 0.3
CTTAATAAGAATAAATGTACAAGGGATAAAAAATTT [XGTACX_site3213] | 10.8 ± 0.38
TATTTAATTATTTGTAGTACGATTAATATTTAATGA [XGTACX_site3553] | 11 ± 0.62
ATAGAATATTAATAATTAAAAATAAAATAAAATAAA [CACACA_negctrl_site1810] | 9.63 ± 0.16
ATAACTTTTTAAAAGACACACATAAGAAAAACAAAA [CACACA_site723] | 10.3 ± 0.26
ATAAAACGAAGATGTTGTACGTACAAATAAATGAAT [XGTACX_site2472] | 11.6 ± 0.83
AACGTTCATAATTATTGTACCCTCATTTTATTTTTT [XGTACX_site503] | 11.2 ± 0.6
AAAAATTTTAATTAGGAACACACATATATATATATA [CACACA_site9016] | 10.2 ± 0.3
TTAATTAATTTTTCAGTGCAAATAAAAAATATTTAA | 9.95 ± 0.23
CAAAAGTAAGCACGCACACACAACATGAAATAAACT [CACACA_site6223] | 10.29 ± 0.078
TATACGCAGAAACACACACACATACACCCACATACA [CACACA_site1723] | 10.5 ± 0.43
TATCTTATAAACTCTGCACACATAATATATTAAATG [CACACA_site8587] | 10.3 ± 0.18
TATATTAGAAAGGATACACACATATATATATATCTA [CACACA_site570] | 9.92 ± 0.13
TTAAACTTGAAACACACACACACACCGATATAAAAA [CACACA_site4578] | 10.2 ± 0.18
GATTACTAGAAATGCACACACTGATAAAATAAGGAA [CACACA_site6131] | 10 ± 0.13
TATATATATGAGTATACACACCTGATAAAGGTATAT [CACACA_site5462] | 10.1 ± 0.099

Sequence | gcPBM binding intensity (ln)
AGAAATATATCTATTTGTCCGTATATTCATATTTAT [XGTACX_site8427] | 10.8 ± 0.5
ATAAAAATATTGTCTAGTACATATTTATAATAAAAA [XGTACX_site7523] | 10.8 ± 0.35
AGATTGGAACATTAAAGTACTTACTTTTTTTTTTTT [XGTACX_site8017] | 11.2 ± 0.75
ATTTTGACATTATATAGTACATATAATTTACATTTA [XGTACX_site3024] | 10.8 ± 0.61
TATATATATATGTGTACACATTTGTCAGATTATATA [CACACA_site4813] | 11.6 ± 0.87
ATTTTTTTTTTTTTTTTTTTTGCACCATAAAATAAT [CACACA_negctrl_site1324] | 10.3 ± 0.38
TATATACTCAAACACACACACACATACACAGACATA [CACACA_site5025] | 10.4 ± 0.34
TCTTTATCTTCTTATACACACATTTATTAAAAAAAA [CACACA_site445] | 10.3 ± 0.37
TGACATAAAAAATATACACACTATAATATTTATACT [CACACA_site6776] | 9.76 ± 0.11
ATTTTTTAAAAAGTAACACACACTCTTATATATAAT [CACACA_site9206] | 10.19 ± 0.085
ATATATTTAAACAAAAGTACAAATCATAAATTCAAG [XGTACX_site3633] | 11.1 ± 0.77
TATATATTCTTTTAATGTACATATTGTATTATATCC [XGTACX_site4501] | 11.1 ± 0.54
GTTAACAAATAATGCACACAAATGGATAAAATTATA [CACACA_site3725] | 10.05 ± 0.014
TTAACCATTAATTCTCTACACACTTTTATTTTATTT [CACACA_site8522] | 9.9 ± 0.12
TATATAAGAATATATACACACATATATGTATATATA [CACACA_site2178] | 9.71 ± 0.11
TTTTACAATGAAATATGTACTTAAATGTCCAAATTC [XGTACX_site781] | 11.2 ± 0.84
AAAAAGAAAAATTGCACACACTTATAAAAATATACG [CACACA_site6074] | 10.2 ± 0.19
AATAAGTATACACATACACACACACCCAAAAAAAAA [CACACA_site8034] | 10.4 ± 0.38
CATTTTGTAAGATATGCACACATGGATCATATTTTA [CACACA_site423] | 10.16 ± 0.085
TTTTTTTTTATCAAATGTACATATATATAATAATAA [XGTACX_site3941] | 11.2 ± 0.76
TATTATTAATATGTATGGTTGTAATCTGTGTCTCCT [TGCATGCA_negctrl_site190] | 10.2 ± 0.15
AATATAATTTTTTATTGTACAAAAAAATTATTTAAT [XGTACX_site3248] | 10.9 ± 0.59
